# In the supplement of paper PMC12632987:
# The full ranking holds about 4,500 sequences; the median of “median log2 fold change of GCK-ALFA target abundance (FLAG IP / Myc IP barcode read proportion)” is about 0.078, and the lowest 2% start at about -0.6. Some of the results follow.
# B1: GBRAP_82_6868 (protein)
# chain: KPVVVAEVISMEPLTPEQLAEAEKVAEALRKEAAAKGIELHVIVSDASDESMDKANKELKELKKKYPDAVVVTGAVSKAEDVPEMLRAVADEAIDLALER
# B2: GBRAP_160_4808 (protein)
# chain: MEKAEKKLEEFRKSLLETARATADLPIEDRARILEAEGYTEILDLEEELNLSDETVEKLDAVVDELVATLLANPDLSPEEVLALVEAANKRIEEIVKEEV
# B3: GBRAP_125_3065 (protein)
# chain: AKEAAIADLERIARALGLSEDDIAELRELARAGSIKNTLIAIALAEGREELAEAVEKLTEEEAVEVLRRLAARLAAHPDLTPEEVLEELLRLAREALEKR
# B4: GBRAP_39_5675 (protein)
# chain: EEEEENENVVSYLEALAAKYLYDTGLSEEELYKRAKEILEKKAKENPELKELLEELIKIAEEKGEEAKLALIGVAVLIEEGTPLEEIKEKIEKIIAYFKS
# B5: GBRAP_11_2771 (protein)
# chain: KKEELLKAAELAEELAKLYKKLIEEGPDNEELLKEAEEKLKELEELTKKYGSEAQKKAVEEIKELFKKMKEDPENAVEYLEEARNEALVLAGQFLLDAEE
# B6: GBRAP_11_2706 (protein)
# chain: KKEKLKEAAKLAEEAAKLVKKLLKEGVDNEELLKELEEKIKKLKELTEKHGDEASKKLAEIAEELWEEALKDKENAEQYLKELLAALRVLEGNYLLEIEE
# B7: GBRAP_52_5932 (protein)
# chain: MEEEIEEDVERLVELVEAGKLEEARKLAKEIVETYSEEELEKFIERLAELARTAPLERLPYILEAAEILAEEMERAGRDEALADDLLARVAAAAYENELA
# B8: GBRAP_95_7059 (protein)
# chain: DDLVEEAEALFDTAADLAEAGFEEQAAKAVKALADALKELGGNKVDAKVDRETALRLARIAAETLDADDARAVVDLLGAAVGDPETAAELRAILEAAEAA
# Target: GABARAP, O95166
# Assay: median log2 fold change of GCK-ALFA target abundance (FLAG IP / Myc IP barcode read proportion) (log2 ratio); each designed protein is fused to an ALFA-tag nanobody in HEK293 cells to bring the named protein to FLAG-tagged glucokinase (GCK); Myc marks an untargeted standard; higher = target protein stabilised (more abundant)
# Conditions: target protein: 3xFLAG-MCP-GCK-ALFA reporter; HEK293 landing pad (RPLP)
# How it was run: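 Binders fused to an ALFA nanobody were recombined as a library into HEK293 landing-pad cells, which were induced with 2 μg mL^−1 doxycycline and then transfected to express a FLAG-tagged target and a Myc-tagged standard. After 48 h, circular RNA barcodes recovered by anti-FLAG and anti-Myc immunoprecipitation of lysates were reverse transcribed, amplified and sequenced. Each binder's target abundance is the median log2 ratio of FLAG to Myc barcode read proportions, from barcodes present at ≥10^−7 in both replicates, binders carrying ≥3 barcodes per replicate, a 10^−6 pseudocount and pooled replicates.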
# Chain of GABARAP, O95166 (O95166 whole entry, the tested form may be a part): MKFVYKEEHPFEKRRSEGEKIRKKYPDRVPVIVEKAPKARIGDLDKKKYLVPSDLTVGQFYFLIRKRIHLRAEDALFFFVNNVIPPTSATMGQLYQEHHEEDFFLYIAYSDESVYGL
row,Binder,median log2 fold change
1,B1,0.141
2,B2,-0.0291
3,B3,0.0921
4,B4,0.415
5,B5,0.243
6,B6,0.337
7,B7,-0.463
8,B8,0.0328
